Measured values: article PMC5700166
This is a selection; strong and weak results do not stand in their true shares. The list includes weakly bound sequences.

Tests used:
Assay in all cases: protein-binding microarray (PBM)
Details in all cases: PBM: ~300 nM protein, 6 mM HEPES pH 7.8, 80 mM KCl, 0.5 mM EDTA, 0.5 mM EGTA, 6% glycerol, 35 ng/ul poly-dIdC, 1% milk, 1 h, room temperature; Ap Aiptasia and Nv Nematostella (sea anemones) / Co Capsaspora / Aq Amphimedon (sponge) / Dm Drosophila / Hu human; RHD is the Rel homology domain; high values mean tight binding; most listed sequences are background and not binding sites; double strand, one strand shown
GST-Ap-NF-kB RHD = target: T1, GST-Ap-NF-kB RHD (UniProt A0A913YAJ5)
T1 sequence: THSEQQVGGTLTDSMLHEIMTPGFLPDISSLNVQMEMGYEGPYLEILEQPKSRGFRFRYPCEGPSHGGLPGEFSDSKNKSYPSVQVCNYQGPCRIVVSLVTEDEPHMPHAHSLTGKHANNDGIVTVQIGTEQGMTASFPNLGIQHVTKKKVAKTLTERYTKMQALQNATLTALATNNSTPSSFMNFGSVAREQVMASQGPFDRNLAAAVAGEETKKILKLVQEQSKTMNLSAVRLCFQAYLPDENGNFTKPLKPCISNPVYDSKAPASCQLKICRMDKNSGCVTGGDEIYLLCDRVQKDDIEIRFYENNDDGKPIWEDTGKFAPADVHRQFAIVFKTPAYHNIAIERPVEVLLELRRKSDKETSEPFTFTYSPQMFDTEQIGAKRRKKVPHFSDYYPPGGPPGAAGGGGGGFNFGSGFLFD

[1] = target: T2, GST-Nv-NF-kB (Cys allele) (UniProt E5G601)
T2 sequence: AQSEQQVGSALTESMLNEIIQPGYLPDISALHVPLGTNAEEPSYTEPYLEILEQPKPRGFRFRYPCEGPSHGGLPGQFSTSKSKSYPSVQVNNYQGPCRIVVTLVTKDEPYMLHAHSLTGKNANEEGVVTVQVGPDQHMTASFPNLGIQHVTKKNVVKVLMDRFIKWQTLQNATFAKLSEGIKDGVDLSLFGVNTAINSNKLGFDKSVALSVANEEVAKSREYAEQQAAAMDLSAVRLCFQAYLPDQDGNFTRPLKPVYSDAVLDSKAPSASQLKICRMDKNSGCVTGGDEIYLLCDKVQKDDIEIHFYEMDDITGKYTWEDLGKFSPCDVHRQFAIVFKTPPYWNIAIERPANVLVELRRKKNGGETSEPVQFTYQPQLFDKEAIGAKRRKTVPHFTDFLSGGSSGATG

GST-Co-NF-kB = target: T3, GST-Co-NF-kB (UniProt F1ARL5)
T3 sequence: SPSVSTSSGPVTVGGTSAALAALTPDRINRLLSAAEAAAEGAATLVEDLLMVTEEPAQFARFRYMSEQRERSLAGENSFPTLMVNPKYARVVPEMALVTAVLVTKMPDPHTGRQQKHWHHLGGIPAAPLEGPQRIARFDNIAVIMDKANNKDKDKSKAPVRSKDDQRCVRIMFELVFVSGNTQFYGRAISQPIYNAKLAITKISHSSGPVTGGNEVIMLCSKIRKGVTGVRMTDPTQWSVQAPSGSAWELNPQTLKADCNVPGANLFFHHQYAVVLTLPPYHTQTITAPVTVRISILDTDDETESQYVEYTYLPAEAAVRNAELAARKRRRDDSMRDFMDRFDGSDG

GST-Dm-Relish = target: T4, GST-Dm-Relish (UniProt Q94527)
T4 sequence: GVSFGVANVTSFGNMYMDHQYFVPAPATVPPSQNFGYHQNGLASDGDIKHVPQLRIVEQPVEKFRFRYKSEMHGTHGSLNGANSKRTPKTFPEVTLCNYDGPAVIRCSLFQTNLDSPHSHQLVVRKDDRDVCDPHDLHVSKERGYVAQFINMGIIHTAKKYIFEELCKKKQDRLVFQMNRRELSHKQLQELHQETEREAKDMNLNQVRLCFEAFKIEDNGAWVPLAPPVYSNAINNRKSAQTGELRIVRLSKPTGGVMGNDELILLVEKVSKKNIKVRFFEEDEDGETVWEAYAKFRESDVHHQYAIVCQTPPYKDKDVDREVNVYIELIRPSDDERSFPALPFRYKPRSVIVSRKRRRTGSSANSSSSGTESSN

GST-Aq-NF-kB = target: T5, GST-Aq-NF-kB (UniProt A9Y5G7)
T5 sequence: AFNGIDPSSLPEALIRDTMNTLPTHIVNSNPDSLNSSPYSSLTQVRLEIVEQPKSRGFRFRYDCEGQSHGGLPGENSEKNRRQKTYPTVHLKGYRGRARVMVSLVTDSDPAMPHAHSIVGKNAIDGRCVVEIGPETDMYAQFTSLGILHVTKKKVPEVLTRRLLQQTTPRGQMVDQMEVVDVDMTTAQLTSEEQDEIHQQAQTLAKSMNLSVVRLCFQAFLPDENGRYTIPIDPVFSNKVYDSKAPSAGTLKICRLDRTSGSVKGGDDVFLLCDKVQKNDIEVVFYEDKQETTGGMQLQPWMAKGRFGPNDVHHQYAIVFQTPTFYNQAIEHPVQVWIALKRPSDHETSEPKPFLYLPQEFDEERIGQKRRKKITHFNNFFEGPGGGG

Sequence	binding signal (GST-Ap-NF-kB RHD)	binding signal [1]	binding signal (GST-Co-NF-kB)	binding signal (GST-Dm-Relish)	binding signal (GST-Aq-NF-kB)
CCGATTAACATCAATCGATTGGGTGATGTTAATCGGGTCTTGATTCGCTTGACGCTGCTG	0.299 z-score	-1.15 z-score	0.581 z-score	-0.225 z-score	0.172 z-score
CCGATTAACATCACTTGTTGCGTTGATGTTAATCGGGTCTTGATTCGCTTGACGCTGCTG	0.532 z-score	-0.0963 z-score	0.942 z-score	0.014 z-score	-0.228 z-score
CCGATTAACATCATAGAGCATACTGATGTTAATCGGGTCTTGATTCGCTTGACGCTGCTG	0.0208 z-score	0.229 z-score	0.397 z-score	-0.504 z-score	-0.358 z-score
CCGATTAACATCATAATTTCCAATGATGTTAATCGGGTCTTGATTCGCTTGACGCTGCTG	-0.546 z-score	-0.178 z-score	-0.113 z-score	-0.156 z-score	-0.198 z-score
CCGATTAACATCAGAATTTTTCCTGATGTTAATCGGGTCTTGATTCGCTTGACGCTGCTG	-0.428 z-score	0.19 z-score	0.617 z-score	0.691 z-score	0.549 z-score
CCGATTAACATCATCGCGAATGTTGATGTTAATCGGGTCTTGATTCGCTTGACGCTGCTG	-0.26 z-score	-0.404 z-score	-1.17 z-score	-0.28 z-score	-0.277 z-score
CCGATTAACATCATGGACTGCTTTGATGTTAATCGGGTCTTGATTCGCTTGACGCTGCTG	-0.344 z-score	-0.28 z-score	-0.149 z-score	-0.581 z-score	-0.466 z-score
CCGATTAACATCAGTGCAGTCTATGATGTTAATCGGGTCTTGATTCGCTTGACGCTGCTG	-0.469 z-score	0.235 z-score	-0.333 z-score	-0.0174 z-score	-0.237 z-score
CCGATTAACATCACCGGAGATCTTGATGTTAATCGGGTCTTGATTCGCTTGACGCTGCTG	0.364 z-score	-0.553 z-score	0.185 z-score	0.311 z-score	0.241 z-score
CCGATTAACATCAGATACCAGGGTGATGTTAATCGGGTCTTGATTCGCTTGACGCTGCTG	0.203 z-score	-0.217 z-score	1.09 z-score	0.223 z-score	0.403 z-score
CCGATTAACATCACGTATGGTACTGATGTTAATCGGGTCTTGATTCGCTTGACGCTGCTG	0.149 z-score	0.485 z-score	-0.3 z-score	0.349 z-score	-0.0355 z-score
CCGATTAACATCAGGGCAAGTACTGATGTTAATCGGGTCTTGATTCGCTTGACGCTGCTG	0.157 z-score	0.216 z-score	-0.136 z-score	1.44 z-score	2.28 z-score
CCGATTAACATCAGGCATGGTCCTGATGTTAATCGGGTCTTGATTCGCTTGACGCTGCTG	-0.994 z-score	-1.28 z-score	-1.29 z-score	-1.08 z-score	-0.598 z-score
CCGATTAACATCATTATCTCATATGATGTTAATCGGGTCTTGATTCGCTTGACGCTGCTG	-0.316 z-score	-0.318 z-score	-0.25 z-score	-0.238 z-score	-0.391 z-score
